From PubChem BioAssay AID720542 (National Center for Advancing Translational Sciences (NCATS), 2013)
Hit rate of the full screen: of about 360,000 compounds, about 740 (0.21%) were called active. The shares of active, inactive and inconclusive entries below differ from those in the screen. Calls follow the shape of the dose curve; as a rule, active = well fitted inhibition curve with a large enough effect; inconclusive = small, poorly fitted or top-dose-only effect; inactive = no such curve, though single readings can be large or run the other way. No potency is given beside an inconclusive call; the fits are too rough.

Each compound was assayed on Plasmodium falciparum AMA1 (3D7) - RON2 peptide interaction (assay: qHTS for Inhibitors of AMA1-RON; Towards Development of Antimalarial Drug Lead: Primary Screen). Details: AlphaScreen AMA1-biotinylated RON2 peptide binding; activity change, negative = inhibition: at 58.2 µM (top of the series) unless noted.
Procedure, shortened: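 AMA1 (3D7) with his tag at 25 nM final met compounds first, then biotinylated RON2 peptide at 25 nM; detection used donor plus acceptor beads, 10 µg/mL apiece, read by AlphaScreen after 30 min at room temperature.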
Also: nearly all actives have a fitted effect of over 45% in size.
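For activity change, negative = inhibition in this document: 0% = vehicle wells and -100% = peptide control.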
Potency is read from the fitted curve at half-maximal effect; tags tell the direction and shape of the fitted curve.

Which Potency does the source give for `Cc1ccc(S(=O)(=O)Cn2cnnn2)cc1` here?
Its Potency is inconclusive [inhibitor, partial curve, poor fit].

With `CCc1nc2ccc(C(=O)Nc3cccc(OCC(=O)N(C)C)c3)cn2c1N(C)Cc1ccc(N(C)C)cc1` as the compound, how does the Potency read?
Its Potency is inconclusive [inhibitor, single point].

For `CCC(C)N1CCN(C(=O)c2cccs2)CC1` (stereo unspecified), which Potency is on record?
The Potency was inconclusive [inhibitor, single point].

Which Potency does the source give for `S=c1[nH]nc(-c2cccc3ccccc23)n1-c1cccnc1` here?
The Potency was “inactive”.

With `COc1cccc(/C=C2/C(=O)NN(c3ccc(C)c(C)c3)C2=O)c1` as the compound, how does the Potency read?
Its Potency is “inactive”.

Which Potency does the source give for `O=[N+]([O-])c1ccc(N2CCN(Cc3ccccc3)CC2)c2c1no[n+]2[O-]` here?
Its Potency is active: 22.4 µM.

How did the Potency turn out when `C=CCc1ccccc1OCC(O)CN1CCN(c2ccc(C)cc2)CC1` (stereo unspecified) was run?
Its Potency is inconclusive [inhibitor, single point].

`CN(C)CCCN(C(=O)c1ccc(S(=O)(=O)N2CCc3ccccc3C2)cc1)c1nc2c(F)cc(F)cc2s1` was tested. Which Potency did it give?
The Potency was inconclusive [inhibitor, single point].

With `Nc1ccccc1Nc1ccc([N+](=O)[O-])cc1[N+](=O)[O-]` as the compound, how does the Potency read?
The Potency was inconclusive [inhibitor, full curve].

How did the Potency turn out when `Cc1[nH]n(C(N)=S)c(=O)c1N=Nc1ccc(Br)cc1` was run?
Its Potency is “inactive”.

`CCNC(=O)CN1C(=O)NC(Cc2ccccc2)(Cc2ccccc2)C1=O` was tested. Which Potency did it give?
Its Potency is “inactive”.

Which Potency does the source give for `COc1ccc2c(c1)C=C([C@@H]1C[C@H]3CN(c4ccccc4)C(=O)[C@]34CCCN14)CO2` here?
Its Potency is inconclusive [inhibitor, full curve, poor fit].

How did the Potency turn out when `COc1cc(NS(=O)(=O)c2ccc(C)cc2)c2c(c1N)C(=O)c1ccccc1C2=O` was run?
Its Potency is inconclusive [inhibitor, partial curve].

With `Cc1cc(C(=O)NNc2ccc(C)c(C)c2)no1` as the compound, how does the Potency read?
The Potency was “inactive”.

For `O=[N+]([O-])c1ccc2c(c1)C(N1CCOCC1)/C(=C/COc1ccc3ccccc3c1Br)O2` (stereo unspecified), which Potency is on record?
The Potency was inconclusive [inhibitor, partial curve].

For `CC1(C(=O)NCc2cccc3ccccc23)CCN1Cc1ccc(-c2ccccc2)o1` (stereo unspecified), which Potency is on record?
Its Potency is inconclusive [inhibitor, partial curve].

How did the Potency turn out when `COc1ccccc1CNC(=O)Nc1nnc([C@H]2C[C@H](O)[C@@H](CO)O2)s1` was run?
The Potency was “inactive”.

`Cn1c(SCC(=O)Nc2ccccc2F)nnc1-c1cc2ccccc2o1` was tested. Which Potency did it give?
The Potency was inconclusive [inhibitor, single point].

Which Potency does the source give for `C=C1CCN([C@@H](CC(C)C)C(=O)N2CCCC2)S(=O)(=O)c2ccccc21` here?
The Potency was “inactive”.

`CCCCN(C1CCS(=O)(=O)C1)S(=O)(=O)c1ccc(C(C)C)cc1` (stereo unspecified) was tested. Which Potency did it give?
Its Potency is inconclusive [inhibitor, full curve, poor fit].

With `CCN(CC)c1ccc(NC(=O)CN2CCN(CC(=O)Nc3ccccc3OC)CC2)cc1` as the compound, how does the Potency read?
The Potency was inconclusive [inhibitor, single point].

With `Clc1ccc(NNc2ccnc3cc(Cl)ccc23)cc1` as the compound, how does the Potency read?
The Potency was inconclusive [inhibitor, partial curve].

How did the Potency turn out when `COc1ccc(CCNC(=O)C23CN(Cc4ccccc4)CC2C(c2cccc([N+](=O)[O-])c2)=NO3)cc1` (stereo unspecified) was run?
Its Potency is inconclusive [inhibitor, single point].

`CCCCn1c(N)c(N(CC(C)C)C(=O)CC2OC(=O)c3ccccc32)c(=O)[nH]c1=O` (stereo unspecified) was tested. Which Potency did it give?
Its Potency is “inactive”.

With `COc1ccc(N2CCN(C(c3ccccc3OC)c3nnnn3Cc3ccco3)CC2)cc1` (stereo unspecified) as the compound, how does the Potency read?
The Potency was inconclusive [inhibitor, partial curve].

How did the Potency turn out when `CCC1(c2ccc(F)cc2)NC(=O)N(CC(=O)Nc2ccc(N3CCCCC3)cc2)C1=O` (stereo unspecified) was run?
The Potency was inconclusive [inhibitor, partial curve].

Which Potency does the source give for `CSc1ccc(OC2(C)CCN(Cc3cc4ccccc4o3)C2)cc1` (stereo unspecified) here?
The Potency was inconclusive [inhibitor, partial curve].

Which Potency does the source give for `C=CCn1c(NCc2ccc(N(C)C)cc2)nc2ccccc21` here?
The Potency was inconclusive [inhibitor, partial curve].

With `O=C(CSc1nnc(NC2CCCCC2)s1)Nc1ccc2c(c1)C(=O)c1ccccc1C2=O` as the compound, how does the Potency read?
Its Potency is “inactive”.

`COC(=O)C(NC(=O)Nc1ccccc1OC)C(C)C` (stereo unspecified) was tested. Which Potency did it give?
The Potency was inconclusive [inhibitor, partial curve].

Which Potency does the source give for `COc1ccccc1OCC(=O)Nc1cccc(-c2nnc(-c3ccco3)o2)c1` here?
The Potency was inconclusive [inhibitor, partial curve, poor fit].

With `COc1ccc(C2c3[nH]c4ccccc4c3CCN2C(=O)c2cc3ncccn3n2)c(F)c1` (stereo unspecified) as the compound, how does the Potency read?
Its Potency is inconclusive [inhibitor, single point].

How did the Potency turn out when `CCc1nc2ccc(C(=O)NCCc3c[nH]c4ccccc34)cn2c1N(C=O)CCC(C)C` was run?
The Potency was inconclusive [inhibitor, partial curve].

Which Potency does the source give for `Cc1cccc(/C=C/C(=O)c2cc(Br)ccc(=O)c2O)c1` here?
The Potency was inconclusive [inhibitor, single point].

For `CCOC(=O)C1CCN(Cc2ccc(OCc3ccccc3)cc2)CC1`, which Potency is on record?
Its Potency is inconclusive [inhibitor, single point].

For `COc1ccc(C(C[N+](=O)[O-])C2(c3ccc(OC)c(OC)c3)C(=O)c3ccccc3C2=O)cc1` (stereo unspecified), which Potency is on record?
Its Potency is inconclusive [inhibitor, partial curve].

How did the Potency turn out when `Cc1ccc(NC(=O)CSc2nnc(Cc3cccn3C)n2-c2ccc(F)cc2)cc1` was run?
Its Potency is “inactive”.

`COc1ccc(-c2c(-c3cc(OC)cc(OC)c3)n(C)c3ccc(-c4ccc(N(C)C)nc4)cc23)cc1` was tested. Which activity change, negative = inhibition did it give?
Its activity change, negative = inhibition is inconclusive: -19.2% [inhibitor].

With `C/C(=N\N(c1ccccc1)c1ccccc1)c1ccc(N)cc1` as the compound, how does the Potency read?
Its Potency is inconclusive [inhibitor, partial curve].

Which Potency does the source give for `COc1cccc(/C=N/NC(=O)CNC(=O)c2ccc(S(=O)(=O)N3CCCC3)cc2)c1OC` here?
Its Potency is “inactive”.

For `CN(C)c1ccc(NS(=O)(=O)c2ccc(-c3csnn3)cc2)cc1`, which Potency is on record?
The Potency was inconclusive [inhibitor, partial curve].

How did the Potency turn out when `Cc1ccc(C(NC(=O)C2CCN(Cc3ccc(Oc4ccccc4)cc3)CC2)c2ccccn2)cc1` (stereo unspecified) was run?
The Potency was inconclusive [inhibitor, single point].

For `COc1nc(NCCC2=CCCCC2)nc(OC)n1`, which Potency is on record?
Its Potency is inconclusive [inhibitor, partial curve, poor fit].

`COc1ccc(NC(=O)CCN2C(=O)C3CC=C(Cl)CC3C2=O)cc1` (stereo unspecified) was tested. Which Potency did it give?
The Potency was “inactive”.

`O=C1c2ccccc2-c2onc3ccc(Oc4ccccc4)c1c23` was tested. Which Potency did it give?
Its Potency is inconclusive [inhibitor, partial curve].

`CC(=O)Oc1cccc(/C=C2\Sc3ccccc3C2=O)c1` was tested. Which Potency did it give?
Its Potency is “inactive”.

For `Cn1c(O)c(C(c2ccccn2)c2c(O)n(C)c(=S)n(C)c2=O)c(=O)n(C)c1=S`, which Potency is on record?
The Potency was inconclusive [inhibitor, single point].

Which Potency does the source give for `CCOc1cc2c(cc1OCC)-n1cccc1C(c1ccccc1F)NC2` (stereo unspecified) here?
Its Potency is inconclusive [inhibitor, single point].

With `CCN1/C(=C2\SC(=S)N(Cc3ccccc3)C2=O)Sc2ccccc21` as the compound, how does the Potency read?
Its Potency is inconclusive [inhibitor, single point].

How did the Potency turn out when `CC(C)c1ccc(NNC(=O)C2CCC2)cc1` was run?
Its Potency is inconclusive [inhibitor, partial curve].

How did the Potency turn out when `CCOC(=O)N1CCc2c(sc3nc4n(c(=O)c23)N=C(c2ccc(OC)cc2)CS4)C1` was run?
The Potency was “inactive”.

With `COc1ccccc1NC(=O)C(C)OC(=O)C1CC(=O)N(c2ccc3c(c2)OCCO3)C1` (stereo unspecified) as the compound, how does the Potency read?
Its Potency is “inactive”.

How did the Potency turn out when `NC(=O)c1cc(N)ccc1N1CCCC1` was run?
Its Potency is inconclusive [inhibitor, partial curve].

How did the Potency turn out when `CCOc1ccc(-c2nnc(SCC(=O)Nc3ccc4c(c3)c3ccccc3n4CC)n2N)cc1` was run?
Its Potency is inconclusive [inhibitor, partial curve].

For `CS(=O)(=O)c1ccc2nc(NC(=O)c3ccccc3Cl)sc2c1`, which Potency is on record?
Its Potency is inconclusive [inhibitor, partial curve, poor fit].

Which Potency does the source give for `COc1ccccc1-c1sc2ccccc2c1-c1ccc(OCCN2CCCCC2)cc1` here?
Its Potency is inconclusive [inhibitor, partial curve].

Which Potency does the source give for `O=C1OC(c2ccc3ccccc3c2O)(c2ccc3ccccc3c2O)c2ccccc21` here?
The Potency was inconclusive [inhibitor, single point].

`COc1ccc(C(=O)c2c(C(F)(F)F)oc3c2C(=O)c2ccccc2C3=O)cc1` was tested. Which Potency did it give?
Its Potency is inconclusive [inhibitor, partial curve].

Which Potency does the source give for `O=C(Nc1cccnc1Cl)c1cccnc1Cl` here?
The Potency was inconclusive [inhibitor, single point].

Which Potency does the source give for `COC(=O)c1cccc(OCC(O)Cn2cnc3cc(C)c(C)cc32)c1` (stereo unspecified) here?
Its Potency is “inactive”.

With `COc1cc(C(CCN2CCOCC2)c2c(OC)cc(OC)c3c(-c4ccccc4)cc(=O)oc23)cc(OC)c1OC` (stereo unspecified) as the compound, how does the Potency read?
Its Potency is “inactive”.

How did the Potency turn out when `Fc1cccc(Cc2noc(CN3CCN(C4CCc5ccccc5C4)CC3)n2)c1` (stereo unspecified) was run?
Its Potency is inconclusive [inhibitor, partial curve].

With `O=C(CSc1nnc2c(n1)[nH]c1ccc(F)cc12)NCc1ccc(F)cc1` as the compound, how does the Potency read?
The Potency was “inactive”.

With `CC1(Oc2ccc(Cl)cc2)CCN(Cc2ccc(-c3ccccn3)cc2)C1` (stereo unspecified) as the compound, how does the Potency read?
The Potency was inconclusive [inhibitor, partial curve].

With `COc1ccccc1-n1c(SCC(=O)N2CCOCC2)nc(O)c(Cc2ccccc2)c1=O` as the compound, how does the Potency read?
Its Potency is “inactive”.

Which Potency does the source give for `CCN(CC)c1ccc(NC(=O)CN2CCN(S(=O)(=O)c3cc(Cl)ccc3OC)CC2)cc1` here?
Its Potency is inconclusive [inhibitor, partial curve].
